Hit rate of the full screen: of about 310,000 compounds, about 14,000 (4.5%) showed an effect of 50% or more. Effects have a minus sign here. This is one part of the list.
What follows are molecules tested against human ether-à-go-go-related gene (hERG) potassium channel (human, UniProt Q12809) (assay: primary screen, population patch clamp on CHO cells stably expressing hERG).
Chain of human ether-à-go-go-related gene (hERG) potassium channel (Q12809 whole entry, looked up): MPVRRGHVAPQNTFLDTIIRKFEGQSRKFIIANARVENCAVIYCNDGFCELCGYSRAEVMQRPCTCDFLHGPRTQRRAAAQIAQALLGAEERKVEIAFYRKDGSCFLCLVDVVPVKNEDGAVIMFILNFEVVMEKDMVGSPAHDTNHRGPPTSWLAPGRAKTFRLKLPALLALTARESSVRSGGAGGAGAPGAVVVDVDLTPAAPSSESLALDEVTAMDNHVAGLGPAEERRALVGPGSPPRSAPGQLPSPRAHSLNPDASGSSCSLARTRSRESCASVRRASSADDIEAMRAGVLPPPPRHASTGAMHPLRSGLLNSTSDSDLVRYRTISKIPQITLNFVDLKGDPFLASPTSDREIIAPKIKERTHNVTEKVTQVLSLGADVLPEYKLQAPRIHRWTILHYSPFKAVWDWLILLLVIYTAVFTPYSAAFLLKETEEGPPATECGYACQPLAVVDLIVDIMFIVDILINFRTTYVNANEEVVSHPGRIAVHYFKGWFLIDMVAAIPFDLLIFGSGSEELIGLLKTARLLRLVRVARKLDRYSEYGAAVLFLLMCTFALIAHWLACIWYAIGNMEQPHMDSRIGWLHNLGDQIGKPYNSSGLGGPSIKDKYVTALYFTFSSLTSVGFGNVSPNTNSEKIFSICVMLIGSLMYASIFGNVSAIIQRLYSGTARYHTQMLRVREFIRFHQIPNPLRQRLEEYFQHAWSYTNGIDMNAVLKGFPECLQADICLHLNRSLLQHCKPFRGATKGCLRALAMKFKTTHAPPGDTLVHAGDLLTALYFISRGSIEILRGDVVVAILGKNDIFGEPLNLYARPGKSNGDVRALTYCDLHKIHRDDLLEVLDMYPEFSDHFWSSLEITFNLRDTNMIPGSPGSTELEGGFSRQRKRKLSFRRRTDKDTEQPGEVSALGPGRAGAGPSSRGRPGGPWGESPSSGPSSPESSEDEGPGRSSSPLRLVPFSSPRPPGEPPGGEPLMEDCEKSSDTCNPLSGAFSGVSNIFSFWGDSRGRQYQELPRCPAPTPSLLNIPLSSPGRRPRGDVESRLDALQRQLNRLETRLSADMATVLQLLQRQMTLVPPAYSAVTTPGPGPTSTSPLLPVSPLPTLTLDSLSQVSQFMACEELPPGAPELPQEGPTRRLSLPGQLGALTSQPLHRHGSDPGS
With `O=C(CSc1ncn[nH]1)NCCCc1ccccc1` the “hERG current change (%, negative = inhibition) at 10uM” value was 10.1%.
With `O=C(CCn1c(=O)oc2ccccc21)N(Cc1ccccc1)c1ccccn1` the “hERG current change (%, negative = inhibition) at 10uM” value was -17.3%.
In the case of `CC(=O)NCCC(=O)N1CCCC(CNC(=O)c2ccc(-c3ccccc3)cc2)C1` (centres unmarked), the “hERG current change (%, negative = inhibition) at 10uM” value is reported as -0.511%.
`CCCCn1c2c(c3ccccc31)CCc1nonc1-2` was tested, and the “hERG current change (%, negative = inhibition) at 10uM” value was -11.9%.
With `CC(NC(=O)c1cc(Br)ccc1Br)c1ccccc1` (centres unmarked) the “hERG current change (%, negative = inhibition) at 10uM” value was 4.77%.
In the case of `O=C(NCCCN1CCCC1=O)c1nnc(Cc2c(F)cccc2Cl)o1`, the “hERG current change (%, negative = inhibition) at 10uM” value is reported as 1.34%.
In the case of `CCOC(=O)C(=O)/C(=C\N(C)C)c1onc(-c2ccccc2Cl)c1C(=O)OC`, the “hERG current change (%, negative = inhibition) at 10uM” value is reported as 0.95%.
In the case of `CC1CCCCC1NC(=O)CN1C(=O)c2ccccc2S1(=O)=O` (centres unmarked), the “hERG current change (%, negative = inhibition) at 10uM” value is reported as 17.1%.
`COc1ccc(CN2C(=O)C(CC(C)C)Nc3ncnc(N4CCOCC4)c32)cc1.O=C(O)C(F)(F)F` (centres unmarked) was tested, and the “hERG current change (%, negative = inhibition) at 10uM” value was -0.749%.
In the case of `COc1ccc(CCn2c(SCC(=O)Nc3cc(C)on3)nc3ccccc3c2=O)cc1OC`, the “hERG current change (%, negative = inhibition) at 10uM” value is reported as 0.454%.
For `COc1ccc(C2CC(c3ccc(Br)cc3)=NN2C(=O)CCC(=O)O)cc1OC` (centres unmarked), the “hERG current change (%, negative = inhibition) at 10uM” value was 9.97%.
For `Cc1ccccc1C(=O)OC1OC(=O)C(Cl)=C1Nc1ccccc1` (centres unmarked), the “hERG current change (%, negative = inhibition) at 10uM” value was 1.75%.
For `Cc1ccc2c(c1)C(c1ccc([N+](=O)[O-])cc1)=NNC(c1ccc(Br)cc1)=N2`, the “hERG current change (%, negative = inhibition) at 10uM” value was -17.4%.
With `CCN(CC)S(=O)(=O)c1ccc(NC(=O)c2cnc(C)cn2)cc1` the “hERG current change (%, negative = inhibition) at 10uM” value was 8.22%.
For `Cc1nn(C)c(Cl)c1CN1CCCC(CCC(=O)NCc2ccccc2F)C1` (centres unmarked), the “hERG current change (%, negative = inhibition) at 10uM” value was -27%.
`CCOC(=O)c1[nH]c(C)c(C(=O)NCc2ccccn2)c1C` was tested, and the “hERG current change (%, negative = inhibition) at 10uM” value was 8.34%.
`CN(C)C(=O)/C(C#N)=C\c1cc(Br)c(Sc2ccc(Cl)cc2)o1` was tested, and the “hERG current change (%, negative = inhibition) at 10uM” value was -2.4%.
With `O=C(Oc1ccc(=O)n(-c2ccccc2)n1)c1cccc(Cl)c1` the “hERG current change (%, negative = inhibition) at 10uM” value was 6.78%.
In the case of `CCC(C)[C@@H](C(=O)NCC1CCC(C(=O)O)CC1)n1nnc2ccccc2c1=O` (some centres unmarked), the “hERG current change (%, negative = inhibition) at 10uM” value is reported as -6.52%.
`COC(=O)c1ccc(CSc2nnc(NCc3ccccc3)s2)o1` was tested, and the “hERG current change (%, negative = inhibition) at 10uM” value was -11.7%.
With `COC(=O)c1ccc(NC(=O)C2CCCN2S(=O)(=O)c2ccc(OC)cc2)cc1` (centres unmarked) the “hERG current change (%, negative = inhibition) at 10uM” value was -16.8%.
With `O=c1[nH][nH]c(-c2ccccc2)c1C=Nc1cccc(Cl)c1` the “hERG current change (%, negative = inhibition) at 10uM” value was 5.35%.
In the case of `COc1ccc(OCCCC(=O)N(C)CC(=O)Nc2c(C)cccc2C)cc1`, the “hERG current change (%, negative = inhibition) at 10uM” value is reported as -1.89%.
`Cc1ccc(C2CCN(C(=S)NC(C)C)C2)cc1` (centres unmarked) was tested, and the “hERG current change (%, negative = inhibition) at 10uM” value was 11.7%.
For `CCOC(=O)c1c(-c2ccc(OC)cc2)csc1NC(=O)C1CCCO1` (centres unmarked), the “hERG current change (%, negative = inhibition) at 10uM” value was 11%.
With `CCCn1nnc(NC(=O)/C=C/c2ccco2)n1` the “hERG current change (%, negative = inhibition) at 10uM” value was 11.6%.
`Cc1cccc(NCC(=O)N/N=C\c2cccn2C)c1` was tested, and the “hERG current change (%, negative = inhibition) at 10uM” value was 0.687%.
For `COC(=O)c1ccc(COc2ccc(F)cc2)o1`, the “hERG current change (%, negative = inhibition) at 10uM” value was -27.4%.
For `Cc1cc(NC(=O)CSCC(=O)OCc2nnc(-c3ccccc3)o2)no1`, the “hERG current change (%, negative = inhibition) at 10uM” value was 26.9%.
With `COc1ccc(CN2C(=O)C3C4C=CC(C4)C3C2=O)cc1` (centres unmarked) the “hERG current change (%, negative = inhibition) at 10uM” value was 13.4%.
`Cc1ccc(-c2nn(-c3ccccc3)cc2/C=N/NC(=O)CSc2nnc(C)n2-c2ccccc2)cc1` was tested, and the “hERG current change (%, negative = inhibition) at 10uM” value was 2.45%.
`Cc1cc(N2CCN(C)CC2)nc2ccc(NC(=S)N3CCN(c4ccc(F)cc4)CC3)cc12` was tested, and the “hERG current change (%, negative = inhibition) at 10uM” value was -3.11%.
In the case of `CC(=O)N(c1ccc2oc(=O)sc2c1)S(=O)(=O)c1ccccc1`, the “hERG current change (%, negative = inhibition) at 10uM” value is reported as 2.13%.
With `COC(=O)C1(Cc2cc(-c3ccc(OC)cc3OC)no2)CCN(C(=O)OC(C)(C)C)CC1` the “hERG current change (%, negative = inhibition) at 10uM” value was 2.01%.
`CCN(CC(=O)Nc1ccc2c(c1)OCCO2)C(=O)/C=C/c1cccc(Br)c1` was tested, and the “hERG current change (%, negative = inhibition) at 10uM” value was -28.7%.
In the case of `COc1cccc(C(=O)N2N=C(c3cccc(OC)c3)CC2(O)C(F)(F)F)c1` (centres unmarked), the “hERG current change (%, negative = inhibition) at 10uM” value is reported as 17%.
In the case of `Br.Cc1ccc(C2=CSC3=NCCN23)c(C)c1`, the “hERG current change (%, negative = inhibition) at 10uM” value is reported as -26.8%.
`Cc1sc2nc(C3CC3)nc(N3CCN(C(=O)c4ccccc4F)CC3)c2c1C.Cl` was tested, and the “hERG current change (%, negative = inhibition) at 10uM” value was -37.6%.
In the case of `COc1ccc(OC)c(-c2nn(-c3ccccc3)cc2C(=O)NCC(c2ccco2)N2CCCC2)c1` (centres unmarked), the “hERG current change (%, negative = inhibition) at 10uM” value is reported as -63.7%.
With `CCOC(=O)CN1C(=O)CSc2ccc(S(=O)(=O)N3CCOCC3)cc21` the “hERG current change (%, negative = inhibition) at 10uM” value was 9.95%.
With `NC(=O)CN1C(=O)C2C3c4ccccc4C(c4ccccc43)C2C1=O` (centres unmarked) the “hERG current change (%, negative = inhibition) at 10uM” value was 3.59%.
In the case of `CN1CCN(C(=O)c2c(NC(=O)c3ccco3)sc3c2CCC(C(C)(C)C)C3)CC1` (centres unmarked), the “hERG current change (%, negative = inhibition) at 10uM” value is reported as -69.5%.
For `CN(c1ccc(C(=O)N2CCCCCC2)cc1)S(=O)(=O)c1ccccc1`, the “hERG current change (%, negative = inhibition) at 10uM” value was -6.01%.
`CC1(C)C2SCC(=O)N2CCN1CC(=O)NN` (centres unmarked) was tested, and the “hERG current change (%, negative = inhibition) at 10uM” value was -0.829%.
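Note: peak tail current of the secondary pulse compared with the same well before compound.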
